# The list shows a part of the results. No stated cut-off is given here; in the data, active = 3.2 or more and inactive = the rest. Most of these values are background signal.
# Key:
# Experiment in all cases: enrichment score (SH2-bound / input frequency) (ratio); bacterial display of known human phosphotyrosine sites (pTyr-Var adds point mutants) read by sequencing; higher = stronger binding; tyrosines were phosphorylated by kinases first
# Conditions in all cases: peptide library: pTyr-Var
# SHP2 C-SH2 domain E139D = biological target: SHP2 C-SH2 domain E139D
# [1] = biological target: SHP2 C-SH2 domain wild-type
# SHP2 N-SH2 domain L43F = biological target: SHP2 N-SH2 domain L43F
# SHP2 N-SH2 domain T42A = biological target: SHP2 N-SH2 domain T42A
# SHP2 N-SH2 domain T52S = biological target: SHP2 N-SH2 domain T52S
# [2] = biological target: SHP2 N-SH2 domain wild-type
# 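Further: displayed peptides selected on beads carrying the immobilized SH2 domain, with library peptides lacking any tyrosine serving as negative controls.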
Binder,enrichment score (SHP2 C-SH2 domain E139D),enrichment score [1],enrichment score (SHP2 N-SH2 domain L43F),enrichment score (SHP2 N-SH2 domain T42A),enrichment score (SHP2 N-SH2 domain T52S),enrichment score [2]
EEDPEYKKKFR [FAM161A_Y278],inactive: 0.794,inactive: 0.539,inactive: 0.655,inactive: 0.52,inactive: 0.62,inactive: 0.635
GNEEAYGSSHI [FAM171B_Y522_R524S],inactive: 0.415,inactive: 0.335,inactive: 0.511,inactive: 0.441,inactive: 0.395,inactive: 0.523
AAVDEYLEYRR [FAM221A_Y17],inactive: 0.962,inactive: 0.681,inactive: 0.964,inactive: 0.582,inactive: 0.695,inactive: 0.854
LQEQNYLAVDS [FAM114A1_Y115],inactive: 0.547,inactive: 0.773,inactive: 1.17,inactive: 1.31,inactive: 0.704,inactive: 0.706
VRSVDYVLFRS [FAM189B_Y361],inactive: 0.827,inactive: 0.889,inactive: 0.863,inactive: 0.92,inactive: 0.827,inactive: 0.824
RIDRKYKKVRF [F8_Y442_G439D],inactive: 0.372,inactive: 0.231,inactive: 0.227,inactive: 0.365,inactive: 0.323,inactive: 0.338
KRAIGYFSATS [FAM120A_Y327_YF],inactive: 0.822,inactive: 0.909,inactive: 0.635,inactive: 0.683,inactive: 0.833,inactive: 0.994
PIGRKYKKVRF [F8_Y442_R437P],inactive: 0.242,inactive: 0.346,inactive: 0.498,inactive: 0.296,inactive: 0.26,inactive: 0.203
AAVDEYLEHRR [FAM221A_Y17_Y20H],inactive: 0.688,inactive: 0.745,inactive: 0.764,inactive: 0.646,inactive: 0.688,inactive: 0.94
WIGRKYKKVRF [F8_Y442_R437W],inactive: 0.325,inactive: 0.263,inactive: 0.328,inactive: 0.285,inactive: 0.234,inactive: 0.326
ENFDDYMKEVG [FABP4_Y20],inactive: 0.961,inactive: 0.672,inactive: 0.604,inactive: 0.758,inactive: 0.612,inactive: 0.89
VRFMAYTDETC [F8_Y450_F455C],inactive: 1.06,inactive: 0.938,inactive: 0.836,inactive: 0.898,inactive: 0.993,inactive: 1.31
DLVLQYLRVPL [F9_Y371_A366D],inactive: 1.98,inactive: 1.77,inactive: 2.34,inactive: 2.48,inactive: 2.31,inactive: 2.08
MTFQNYRQALF [FAM20C_Y279_G280R],inactive: 1.01,inactive: 0.88,inactive: 1.12,inactive: 0.925,inactive: 1.02,inactive: 0.874
RIVRKYKKVRF [F8_Y442_G439V],inactive: 0.199,inactive: 0.348,inactive: 0.237,inactive: 0.271,inactive: 0.332,inactive: 0.295
AESPEHVHMFT [FAM111A_Y511_Y511H_YF],inactive: 0.957,inactive: 0.966,inactive: 1.03,inactive: 0.846,inactive: 0.937,inactive: 1.1
RIGRKYKKVRF [F8_Y442],inactive: 0.26,inactive: 0.244,inactive: 0.378,inactive: 0.235,inactive: 0.191,inactive: 0.135
ALVLQYLRVPL [F9_Y371],active: 3.49,active: 3.35,active: 3.3,inactive: 2.7,inactive: 2.83,active: 3.22
AESPEHVHMYT [FAM111A_Y511_Y511H],inactive: 0.748,inactive: 0.723,inactive: 0.699,inactive: 0.715,inactive: 0.85,inactive: 0.86

# — the supplement of paper PMC10369915
